Measurements: publication PMC4336329 (PLoS ONE, 2015)
In all, about 310,000 compounds went through this assay and about 2,200 (0.71%) showed an effect of 50% or more. Effects have a minus sign here. This is one part of the list.

Target: human ether-à-go-go-related gene (hERG) potassium channel (human, UniProt Q12809)
Test: primary screen, population patch clamp on CHO cells stably expressing hERG

human ether-à-go-go-related gene (hERG) potassium channel, sequence (Q12809 whole entry, looked up): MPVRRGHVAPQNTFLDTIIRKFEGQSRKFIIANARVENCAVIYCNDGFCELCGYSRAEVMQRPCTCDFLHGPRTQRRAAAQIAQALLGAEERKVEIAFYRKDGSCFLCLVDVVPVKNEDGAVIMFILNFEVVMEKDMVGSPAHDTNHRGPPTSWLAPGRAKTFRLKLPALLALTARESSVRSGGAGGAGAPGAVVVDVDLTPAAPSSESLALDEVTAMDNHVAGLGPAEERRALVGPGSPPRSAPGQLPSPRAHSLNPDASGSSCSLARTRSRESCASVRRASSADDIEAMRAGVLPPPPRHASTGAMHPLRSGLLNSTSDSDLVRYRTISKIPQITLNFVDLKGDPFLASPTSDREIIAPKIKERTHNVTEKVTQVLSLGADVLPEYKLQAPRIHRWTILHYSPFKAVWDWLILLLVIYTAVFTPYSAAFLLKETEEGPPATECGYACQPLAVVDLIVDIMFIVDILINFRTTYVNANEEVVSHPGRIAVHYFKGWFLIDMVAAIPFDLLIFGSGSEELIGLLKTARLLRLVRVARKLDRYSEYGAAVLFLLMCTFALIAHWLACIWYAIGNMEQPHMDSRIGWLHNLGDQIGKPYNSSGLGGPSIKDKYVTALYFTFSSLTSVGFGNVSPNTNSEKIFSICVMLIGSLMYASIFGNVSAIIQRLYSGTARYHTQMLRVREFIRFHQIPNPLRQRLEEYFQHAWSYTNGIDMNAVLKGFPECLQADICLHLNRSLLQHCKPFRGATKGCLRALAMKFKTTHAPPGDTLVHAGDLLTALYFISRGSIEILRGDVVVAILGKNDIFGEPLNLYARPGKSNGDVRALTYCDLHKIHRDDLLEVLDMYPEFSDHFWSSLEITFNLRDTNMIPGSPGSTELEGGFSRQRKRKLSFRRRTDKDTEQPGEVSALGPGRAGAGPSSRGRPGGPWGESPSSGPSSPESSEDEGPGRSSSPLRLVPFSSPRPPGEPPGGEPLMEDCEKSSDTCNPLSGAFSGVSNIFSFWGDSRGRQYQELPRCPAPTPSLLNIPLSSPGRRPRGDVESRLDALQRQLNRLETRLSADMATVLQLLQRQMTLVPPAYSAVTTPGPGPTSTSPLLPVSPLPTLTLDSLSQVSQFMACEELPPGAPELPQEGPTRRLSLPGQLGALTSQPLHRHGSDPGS

| Structure (SMILES) | hERG current change (%, negative = inhibition) at 1uM |
| --- | --- |
| CC(=O)N1CCN(c2ccc(NC(=O)/C=C/c3ccccc3)cc2)CC1 | 3.08% |
| Cc1cc(CNC(=O)CCc2nnc(CCCc3ccccc3)o2)nn1C | 11.5% |
| CCC1(c2ccccc2)NC(=O)N(CC(=O)Nc2ccc3c(c2)OCO3)C1=O (stereo not drawn) | 1.81% |
| COc1ccc(OC)c(S(=O)(=O)N2CCN(C(=O)NC3CCCCC3)CC2)c1 | 5.26% |
| Cc1ccccc1S(=O)(=O)Cc1ccc(C(=O)NC2CCCC2)o1 | 4.39% |
| COc1ccccc1C1C(C(=O)NCc2ccccc2)=C(C)Nc2ncnn21 (stereo not drawn) | 3.78% |
| O=C(CSc1nnc(-c2ccncc2)n1-c1ccccc1)Nc1ccc(C(=O)O)cc1 | 10.2% |
| O=C(CSc1nc2[nH]ncc2c(=O)n1-c1ccccc1)NCCc1ccccc1 | 17.1% |
| Cc1ccccc1Nc1ncnc2c1cnn2Cc1ccccc1 | 10.5% |
| CN(C)/C=C1\C(=O)Nc2ccccc21 | 13.9% |
| O=C(OCC(=O)N1CCc2ccccc2C1)c1cccc([N+](=O)[O-])c1 | 5.85% |
| COc1ccc2cc(C(=O)C3CCCN(Cc4cccc(C)n4)C3)ccc2c1 (stereo not drawn) | 11.2% |
| N#Cc1ccc(NC(=O)COC(=O)C2=COCCO2)cc1 | 4.69% |
| CCOC(=O)CCC(=O)NCc1ccc2[nH]c(C)cc2c1 | 11.2% |
| COc1ccc(-c2c(C#N)c(N)nc(Sc3ccc(Cl)cc3)c2C#N)cc1 | 10.9% |
| Cc1ccc(CNC(=O)c2cccc(OCc3c(C)noc3C)c2)cc1 | 3.43% |
| O=C(COC(=O)CCC(=O)c1ccc(F)cc1)Nc1nnc(-c2ccccc2)o1 | -0.682% |
| COC(=O)C(CC(=O)Nc1cc(C)ccc1C)Nc1ccccc1OC (stereo not drawn) | -6.02% |
| COc1cccc(NC(=O)CN(C)C(C)C(=O)Nc2ccc(S(=O)(=O)N3CCOCC3)cc2)c1 (stereo not drawn) | 9.99% |
| O=C(c1cccc([N+](=O)[O-])c1)N1CCN(c2ccc(Cl)cc2)CC1 | 2.13% |
| CC[C@H](C)[C@H](NC(=O)OCc1ccccc1)C(=O)Nc1ccc(NC(C)=O)cc1 | 13.7% |
| O=C(O)c1ccccc1N/N=C/c1cc(Br)cc(Br)c1O | 9.85% |

| Structure (SMILES) | hERG current change (%, negative = inhibition) at 1uM |
| --- | --- |
| O=S(=O)(c1ccc(F)cc1)N1CCC2(CC1)OCCN2S(=O)(=O)c1cccs1 | 6.15% |
| CCOc1ccc(N/C(N)=N/c2nc(C)cc(C)n2)cc1 | 4.81% |
| COC(=O)C1=C(c2ccc3ccccc3c2)C[C@@H]2CC[C@H]1N2C(=O)NCc1ccc(F)cc1 | 16% |
| Cc1ccc2nc(N(CCCN(C)C)C(=O)c3sc4ccccc4c3Cl)sc2c1.Cl | 0.599% |
| Clc1cccc(Cl)c1/C=C/c1ccn[nH]1 | 10.7% |
| CN(C)CCCNS(=O)(=O)c1ccc(N2CCC(c3ccc(Cl)cc3)=N2)cc1 | 10.8% |
| Cc1ccc(C2(C)NC(=O)N(CC(=O)N3CCN(S(=O)(=O)c4cccs4)CC3)C2=O)cc1 (stereo not drawn) | 8.78% |
| CCCOc1ccc(C2/C(=C(/O)c3ccccc3)C(=O)C(=O)N2CCCN(C)C)cc1OC (stereo not drawn) | 11.2% |
| COc1ccc(N2C(=O)NC(=O)/C(=C\c3ccccc3[N+](=O)[O-])C2=O)cc1 | 8.9% |
| Cc1cc(Cl)c(S(=O)(=O)N2CCCCCC2)cc1OCC(N)=O | 6.08% |
| Cc1nnc(SCCn2c(N3CCCC(C)C3)nc3c2c(=O)n(C)c(=O)n3C)s1 (stereo not drawn) | 10.4% |
| O=[N+]([O-])c1ccc(Cc2ccccn2)cc1 | 7.18% |
| Cc1cccc(N=C2NC(=O)/C(=C\c3cccs3)S2)c1 | 10.6% |
| Cc1cc(C)c2c3c(cn2n1)c(=O)n(C)c(=O)n3C | 6.24% |
| Fc1ccc2[nH]c3c(Cl)ncnc3c2c1 | 8.57% |
| COc1ccccc1N1CCN(C(=O)Nc2cccc(C)c2)CC1 | 8.62% |
| O=C(Nc1ccc(C(=O)O)cc1)Nc1cccc2ccccc12 | 12.4% |
| OCCN1CN=C(Nc2nc3ccccc3s2)NC1 | -7.88% |
| CCN1CCN(C(=O)c2ccc3c(c2)N(Cc2ccc(F)cc2)C(=O)c2ccccc2S3=O)CC1 (stereo not drawn) | 4.29% |
| Cc1cc2cc(C)c(NCCNC(=O)c3ccccc3F)nc2cc1C | 7.19% |
| CCN(CC)S(=O)(=O)c1cccc2cc(C(=O)O)c(O)cc12 | 5.84% |
| CC1c2[nH]c3ccccc3c2C[C@H]2C(=O)N(CCCO)CC(=O)N12 (stereo partly drawn) | 17.6% |

| Structure (SMILES) | hERG current change (%, negative = inhibition) at 1uM |
| --- | --- |
| COc1cccc(C2c3[nH]c4ccccc4c3C[C@H]3C(=O)N(c4ccccc4C(=O)NCCCN4CCOCC4)C(=O)N23)c1 (stereo partly drawn) | 8.6% |
| CN(C)S(=O)(=O)c1ccc2c(c1)nc(CCC(=O)Nc1ccc(N3CCOCC3)cc1)n2C | 11.4% |
| CCOC(=O)C(=O)Nc1nnc(C2CCCCC2)s1 | 7.59% |
| O=C(Nc1nc2ccc(Cl)cc2s1)c1cccc(N2C(=O)CCC2=O)c1 | 7.77% |
| COc1ccc(-c2csc(NC(=O)Cc3cc(OC)c(OC)c(OC)c3)n2)cc1OC | 7.25% |
| CC(C)c1nnc(SCC(=O)NCCC2=CCCCC2)n1N | -8.88% |
| Cc1ccc(S(=O)(=O)N2CCCC(c3nc4c(nnn4Cc4ccc5c(c4)OCCO5)c(=O)[nH]3)C2)cc1 (stereo not drawn) | 4.8% |
| Cc1cc(C)c(C)c(S(=O)(=O)NC2CCCCC2)c1C | 11.4% |
| COc1ccc(CNC(=O)C2Cc3cc(S(=O)(=O)N4CCCC4)ccc3N2C(C)=O)c(OC)c1 (stereo not drawn) | 15% |
| CC(C)(C)C1CCC(OC(=O)CN2CCCCC2)CC1 (stereo not drawn) | 2.3% |
| Cc1nc2cc(C(F)(F)F)ccc2n1C1CCN(CC(=O)N2CCCC2)CC1 | 24.7% |
| Cc1ccn2cc(CCNC(=O)COc3ccccc3)nc2c1 | -2.48% |
| O=C1NCC(=O)N(Cc2ccccc2)/C1=C/c1ccccc1 | 6.63% |
| CN(C)c1ccc(CNS(=O)(=O)c2ccc3c(c2)NC(=O)CS3)cc1 | 1.58% |
| COc1ccc(C)cc1NC(=O)COC(=O)c1ccc2c(c1)OCCO2 | 9.74% |
| CCOC(=O)C1=C(C)Nc2nnnn2C1c1ccccc1Cl (stereo not drawn) | 2.1% |
| CCCC(C)C(=O)Nc1nc(C)c(-c2csc(Nc3cc(Cl)ccc3C)n2)s1 (stereo not drawn) | 6.73% |
| Cc1cc(C)nc(N/N=C/c2ccccc2Cl)n1 | 8.88% |
| O=C(Nc1ccccc1)c1cnc[nH]1 | 7.77% |
| Cc1ccc(-c2cn(-c3ccccc3)c3[n+]2CCCS3)cc1.[Br-] | 4.07% |
| Cc1ccc(C)c(-c2cc(C(=O)N/N=C/c3cccnc3)c3ccccc3n2)c1 | 4.03% |
| COc1ccccc1N(Cc1cc(=O)[nH]c2ccccc12)C(=O)C(C)C | 15.3% |

| Structure (SMILES) | hERG current change (%, negative = inhibition) at 1uM |
| --- | --- |
| COc1ccccc1Nc1nc(N)nc(CN2CCC(Cc3ccccc3)CC2)n1 | -95.7% |
| O=S(=O)(NCC1CCCO1)c1ccc2oc3ccc(S(=O)(=O)NCC4CCCO4)cc3c2c1 (stereo not drawn) | 5.86% |
| O=C(NC(=S)Nc1ccc(Oc2ccccc2)cc1)c1ccc(Cl)cc1 | 2.93% |
| C#Cc1ccc([C@@H]2C=C(C(=O)N3CCN(Cc4ccc5c(c4)OCO5)CC3)O[C@H](OCCCCO)C2)cc1 | -6.13% |
| Clc1cccc(OCCCN2CCCC2)c1Cl | -4.56% |
| CCOC(=O)c1sc(NC(=O)Cc2ccccc2OC)nc1C | 10.5% |
| Cc1cc(C(=O)COC(=O)CC2Sc3ccccc3NC2=O)c(C)n1-c1cccc(C(F)(F)F)c1 (stereo not drawn) | 13.6% |
| CCOC(=O)C1CCN(C(=O)COc2ccc(S(=O)(=O)N3CCCC3)cc2C)CC1 | 5.91% |
| Cn1c(C2=C(O)CN(c3ccccc3)C2=N)nc2ccccc21 | -12.6% |
| CCOC(=O)CSC1=C(C#N)C(c2ccccc2F)C(C(C)=O)=C(C)N1 (stereo not drawn) | 3.35% |
| Cc1ccc(-c2nc(-c3cccnc3)sc2CC(=O)O)cc1 | 14.2% |
| COc1cc(/C=C/C(=O)OCC(=O)NCCc2ccccc2)cc(OC)c1OC | 24.6% |
| O=C(NCCCN1CCOCC1)C(=O)N/N=C/c1c(Cl)cccc1Cl | 8.5% |
| CN(CCOc1ccccc1)CC(=O)Nc1ccc([N+](=O)[O-])cc1Cl | 6.76% |
| CC1CCCN(c2ccc(C(=O)Nc3cccnc3)cc2[N+](=O)[O-])C1 (stereo not drawn) | 11.3% |
| C/C(=N\N1CCN(C)CC1)c1ccc(Cl)c(Cl)c1.Cl | -7.2% |
| COc1cc(NC(=O)c2csc3c2CCCC3)ncn1 | 7.04% |
| CCS(=O)(=O)N1CCCC(c2nc(-c3cccc(OC)c3)no2)C1 (stereo not drawn) | 1.14% |
| Cc1ccc(S(=O)(=O)CCC(=O)O)cc1C | -1.65% |
| COCCOC(=O)c1[nH]c2c(c1C)C(=O)CC(c1cc(OC)ccc1OC)C2 (stereo not drawn) | 7.81% |
| CN(C)S(=O)(=O)c1cccc(NC(=O)CCc2nc3cc(S(=O)(=O)N4CCOCC4)ccc3n2C)c1 | -9.32% |
